From PubChem BioAssay AID1671194 (National Center for Advancing Translational Sciences (NCATS), 2021)
Where “and” joins values, the source holds several entries; their conditions need not be identical. Equal values may be shown once. Among all 140,000 compounds or so, about 240 (0.17%) were called active. This list was built around the results that the source calls inconclusive (neither active nor inactive); the mix of calls is not that of the screen. Calls come from the whole dose curve; as a rule, active = well fitted inhibition curve with a large enough effect; inconclusive = small, poorly fitted or top-dose-only effect; inactive = no such curve, though single readings can be large or run the other way. A potency beside an inconclusive call is a rough fit, not a confirmed value. The source holds several records for some structures; these can differ, active in one and inactive in another.

assay: Primary qHTS assay for inhibitors of alpha-synuclein gene (SNCA) expression; details: HEK-293 SNCA-luciferase knock-in, luminescence, 24 h; activity change, negative = inhibition: at 57.2 µM (top of the series) unless noted; note: nearly all actives have a fitted effect of over 45% in size;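 for activity change, negative = inhibition: plate controls were DMSO cells for no effect and cell-free wells for full effect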
Potency is the fitted concentration of half-maximal effect; tags give direction and shape of the fitted curve.

Q: For `Cc1ccc(C)c(N2CCN(C(=O)C3CCN(c4nc(-c5ccc(C(C)C)cc5)no4)CC3)CC2)c1`, which Potency is on record?
A: inconclusive: 39.8 µM [inhibitor, partial curve, poor fit]

Q: For `O=C(Cc1ccsc1)N1CCCCCC1c1nc(-c2ccncc2)no1` (stereo not given), which Potency is on record?
A: inconclusive: 1.58 µM [inhibitor, partial curve, poor fit]

Q: Which Potency does the source give for `COc1cccc(NC(=O)[C@@H]2C[C@@H](c3ccc(F)cc3)N(CCOc3ccccc3)C2)c1` here?
A: inconclusive: 50.1 µM [inhibitor, single point]

Q: With `Cc1ccc(NC(=O)C2CCc3nnc(-c4cccc(C(F)(F)F)c4)n32)cc1` (stereo not given) as the molecule, how does the Potency read?
A: inconclusive: 6.31 µM [inhibitor, single point]

Q: For `CCOc1cc2ncc(C#N)c(Nc3ccc(F)c(Cl)c3)c2cc1NC(=O)C=CCN(C)C`, which activity change, negative = inhibition is on record?
A: inconclusive: -36.7% [inhibitor]

Q: For `COC(=O)[C@@H]1Cc2c([nH]c3ccccc23)[C@H]2C[C@@H](NCCN(C)C)C[C@@H](c3ccc(F)cc3)N21`, which Potency is on record?
A: inactive

Q: For `Cc1cc(C(=O)N2CCCC(CCc3c(F)cccc3F)C2)c(=O)n(C)c1C` (stereo not given), which Potency is on record?
A: inactive

Q: Which Potency does the source give for `COc1ccc(NC(=O)Cn2ccn(-c3ccc(F)c(F)c3)c(=O)c2=O)cc1Cl` here?
A: inconclusive: 17.8 µM [inhibitor, partial curve, poor fit]

Q: With `Fc1ccccc1Nc1cnc2ccc(-n3ccnc3)nn12` as the molecule, how does the Potency read?
A: inconclusive: 2.24 µM [inhibitor, partial curve, poor fit]

Q: For `CCN1c2cc(C(=O)NCc3ccccc3C(F)(F)F)ccc2C(=O)N2CCCCCC21` (stereo not given), which Potency is on record?
A: inconclusive: 17.8 µM [inhibitor, single point]

Q: With `Cc1nnc(-c2cc(-c3ccccc3Oc3ccccc3)ccn2)n1C` as the molecule, how does the Potency read?
A: inconclusive: 10 µM [inhibitor, single point]

Q: Which Potency does the source give for `COc1ccc([C@H]2C[C@@H](O)[C@@H](O)[C@@H]2NCc2cccc(C#N)c2)cc1` here?
A: inactive

Q: Which Potency does the source give for `CCN(CC)S(=O)(=O)c1ccc2c(c1)N(CC(=O)Nc1ccc(Cl)cc1)C(=O)C1CCCN21` (stereo not given) here?
A: inconclusive: 39.8 µM [inhibitor, single point]

Q: With `COc1ccc(C(=O)Oc2c(Sc3ccccc3)c(C)nn2-c2ccccc2)c(OC)c1` as the molecule, how does the Potency read?
A: inconclusive: 15.8 µM [inhibitor, partial curve, poor fit]

Q: For `COc1ccccc1CNC(=O)C(=O)NCC(c1ccco1)S(=O)(=O)c1ccc(F)cc1` (stereo not given), which Potency is on record?
A: inconclusive: 3.98 µM [inhibitor, single point]

Q: For `Cc1cccc(C)c1OCCn1c(CCNC(=O)C2CCCCC2)nc2ccccc21`, which Potency is on record?
A: inconclusive: 39.8 µM [inhibitor, single point]

Q: For `COc1ccc(C2Nc3ccccc3-c3cc(C)nn32)c(OC)c1` (stereo not given), which Potency is on record?
A: inconclusive: 15.8 µM [inhibitor, partial curve, poor fit]

Q: For `Cc1cccc(C)c1-c1nc(C(=O)NCCc2ccc(Cl)cc2)n2ccccc12`, which Potency is on record?
A: inconclusive: 3.16 µM [inhibitor, single point]

Q: For `CCCCN1C(=O)C(O)(CC(=O)c2ccc(CC)cc2)c2cc(Br)ccc21` (stereo not given), which Potency is on record?
A: inconclusive: 35.5 µM [inhibitor, single point]

Q: For `Cc1c(Cl)ccc2sc(N3CCN(C(=O)CCS(=O)(=O)c4ccc(F)cc4)CC3)nc12`, which Potency is on record?
A: inconclusive: 12.6 µM [inhibitor, partial curve, poor fit]

Q: With `Cc1ccc2c(c1)C(c1ccccc1)N(C(=O)COc1ccc(Cl)cc1Cl)CC(=O)N2` (stereo not given) as the molecule, how does the Potency read?
A: inconclusive: 31.6 µM [inhibitor, single point]

Q: With `COc1cccc(C2=CC(c3ccccc3F)n3ncc(C(=O)Nc4ccc(F)cc4)c3N2)c1` (stereo not given) as the molecule, how does the Potency read?
A: inconclusive: 35.5 µM [inhibitor, partial curve, poor fit]

Q: With `O=C(c1ccc(Br)o1)N1C[C@@H](CO)[C@H](c2ccccn2)C1` as the molecule, how does the Potency read?
A: inconclusive: 3.16 µM [inhibitor, partial curve, poor fit]

Q: Which Potency does the source give for `Cc1ccc(CN2CC[C@H](c3nc4ccc(C(F)(F)F)cc4[nH]3)C2)cc1` here?
A: inactive

Q: For `Cc1cnc(-c2ccccc2)n1C1CCCNC1` (stereo not given), which Potency is on record?
A: inconclusive: 2.82 µM [inhibitor, full curve, poor fit]

Q: Which Potency does the source give for `O=C(NCc1ccccc1)C1CCN(c2nccc(Nc3ccccc3Cl)n2)CC1` here?
A: inactive

Q: Which Potency does the source give for `CCN1C(=O)CCN(C(=O)c2ccnn2CC)CC12CCOCC2` here?
A: inactive

Q: With `O=C(NC1CCN(Cc2cccc(-c3cccs3)c2)CC1)c1ccccc1Cl` as the molecule, how does the Potency read?
A: inactive

Q: For `COc1cc([C@@H]2c3cc4c(cc3[C@H](O)[C@H]3COC(=O)[C@H]23)OCO4)cc(OC)c1OC`, which Potency is on record?
A: inconclusive: 3.04 µM [inhibitor, full curve, poor fit]

Q: For `O=C(Nc1cccc2ccccc12)O[C@@H]1CO[C@H]2[C@@H]1OC[C@@H]2NC(=S)Nc1ccc(Cl)cc1`, which Potency is on record?
A: inconclusive: 39.8 µM [inhibitor, single point]

Q: For `O=C(Cc1ccc(C(F)(F)F)cc1)NC1CCN(Cc2ccc(-c3ccsc3)cc2)C1` (stereo not given), which Potency is on record?
A: inconclusive: 39.8 µM [inhibitor, single point]

Q: With `CC(C)C[C@H](NC(=O)[C@@H](O)[C@H](N)Cc1ccccc1)C(=O)O` as the molecule, how does the Potency read?
A: inconclusive: 48.2 µM [inhibitor, single point]

Q: Which Potency does the source give for `Cn1ccnc1-c1ccc(N2CCCC(CO)(Cc3cccc(Cl)c3)C2)nn1` (stereo not given) here?
A: inconclusive: 14.1 µM [inhibitor, partial curve, poor fit]

Q: Which Potency does the source give for `Cc1ccc2c(Sc3ccc(Cl)cc3)c(C(=O)N3CCCCC3)[nH]c2c1` here?
A: inconclusive: 39.8 µM [inhibitor, partial curve, poor fit]

Q: With `N[C@@H](Cc1cnc[nH]1)C(=O)NCc1cccnc1Oc1ccc(F)cc1F` as the molecule, how does the Potency read?
A: inconclusive: 7.08 µM [inhibitor, single point]

Q: Which Potency does the source give for `CCCC(=O)NC1CC(=O)N(c2ccc3c(c2)OCCO3)C1` (stereo not given) here?
A: inconclusive: 28.2 µM [inhibitor, partial curve, poor fit]

Q: For `O=C(O)[C@H]1O[C@H](Oc2cc3oc(-c4ccccc4)cc(=O)c3c(O)c2O)[C@H](O)[C@@H](O)[C@H]1O`, which Potency is on record?
A: inactive

Q: With `O=C(c1cccc(-c2ccccn2)c1)N1CCN(C(=O)c2ccccc2F)CC1` as the molecule, how does the Potency read?
A: inconclusive: 39.8 µM [inhibitor, single point]

Q: Which Potency does the source give for `CN(C(=O)CSc1nc2ccc(NC(=O)c3ccc(F)cc3)cc2s1)c1ccccc1` here?
A: inconclusive: 39.8 µM [inhibitor, single point]

Q: For `CN(C)[S+](=O)([O-])c1ccc2c(c1)OCCN(Cc1ccc(C(F)(F)F)cc1)C2`, which Potency is on record?
A: inactive

Q: Which Potency does the source give for `O=c1c(-c2ccc(O)cc2)coc2cc(O)cc(O)c12` here?
A: inactive and inconclusive: 8.57 µM [inhibitor, full curve, poor fit] and active: 2.82 µM

Q: With `C[C@H](NC(=O)Cc1cc(F)cc(F)c1)C(=O)N[C@@H]1C(=O)N(C)c2ccccc2-c2ccccc21` as the molecule, how does the Potency read?
A: inconclusive: 12.1 µM [inhibitor, full curve]

Q: For `CS(=O)(=O)N1CCOc2ccc(CCC(=O)NCc3ccccn3)cc2C1`, which Potency is on record?
A: inactive

Q: Which Potency does the source give for `CCOc1cc(=O)n2c(c1C(=O)Nc1ccc(F)c(F)c1)CCCC2` here?
A: inactive

Q: Which Potency does the source give for `CCOC(=O)Cn1nc(N2CCN(c3ccc(F)cc3)CC2)ccc1=O` here?
A: inconclusive: 5.62 µM [inhibitor, single point]

Q: Which Potency does the source give for `COC(=O)C1=C(c2ccccc2)c2ccccc2S(=O)(=O)N1CC(=O)Nc1cc(C)ccc1C` here?
A: inconclusive: 14.1 µM [inhibitor, single point]

Q: Which Potency does the source give for `Cc1ccc(CN2C(=O)C3(SCC(=O)N3c3ccc(C)c(C)c3)c3ccccc32)cc1` (stereo not given) here?
A: inconclusive: 39.8 µM [inhibitor, single point]

Q: With `COc1ccc(-c2cc(N3CCCC(NC(=O)c4cccc(F)c4)C3)n[nH]2)cc1` (stereo not given) as the molecule, how does the Potency read?
A: inactive

Q: For `Cc1c(C(=O)N2CCOCC2)oc2c1-c1nn(CC(=O)NCc3ccccc3)cc1CC2`, which Potency is on record?
A: inconclusive: 28.2 µM [inhibitor, partial curve, poor fit]

Q: Which Potency does the source give for `COc1ccc(C(=O)Oc2c(Sc3ccc(C)cc3)c(C)nn2C(C)(C)C)c(OC)c1` here?
A: inconclusive: 39.8 µM [inhibitor, single point]

Q: Which Potency does the source give for `O=C1Nc2cc(Cl)ccc2C(=O)N2CCN(C(=O)C3CCCCC3)C[C@H]12` here?
A: inconclusive: 11.2 µM [inhibitor, single point]

Q: Which Potency does the source give for `COCCCn1c(C)cc(C(=O)N2CCCC(CO)CCNC(=O)CC2)c1C` (stereo not given) here?
A: inactive

Q: Which Potency does the source give for `Cc1ccccc1-c1cc(C(=O)NCc2cnn(C)c2)c2c(c1)N(C)CCO2` here?
A: inconclusive: 7.08 µM [inhibitor, partial curve]

Q: Which Potency does the source give for `COc1ccc(CCC(=O)NCc2nnc3c(-c4nc(C(C)C)no4)cccn23)cc1` here?
A: inconclusive: 6.31 µM [inhibitor, single point]

Q: With `CC1=C[C@@H](CN2CCN(c3cnccn3)CC2)[C@H](C(C)C)C[C@H]1Cc1nnc(-c2ccccc2)o1` as the molecule, how does the Potency read?
A: inconclusive: 8.91 µM [inhibitor, partial curve, poor fit]

Q: With `Cc1ccc(-n2nc(C)c3c(C)c(CCC(=O)NCc4cccc(Cl)c4)c(C)nc32)cc1C` as the molecule, how does the Potency read?
A: inconclusive: 7.08 µM [inhibitor, single point]

Q: Which Potency does the source give for `O=C(NCC1CCCCC1)c1nc2sccn2c1-c1ccccc1` here?
A: inconclusive: 22.4 µM [inhibitor, single point]

Q: For `O=C(CSc1c2c(nc3ccc(Cl)cc13)CCCC2)N1CCCCC1`, which Potency is on record?
A: inconclusive: 20 µM [inhibitor, single point]

Q: For `Cc1noc2c(N3CC[S+](=O)([O-])CC3)cc(-c3cccc(C(F)(F)F)c3)nc12`, which Potency is on record?
A: inactive

Q: With `Cn1cccc1CN1CCC2(COc3ccccc3C(=O)N2)C1` (stereo not given) as the molecule, how does the Potency read?
A: inactive
